From PubChem BioAssay AID652104 (National Center for Advancing Translational Sciences (NCATS), 2013)
The campaign covered roughly 410,000 compounds. About 7,200 (1.8%) were called active. Inconclusive means that the source gave no clear call. Such entries were picked first, then a sample of the others. Calls follow the shape of the dose curve; as a rule, active = well fitted activation curve with a large enough effect; inconclusive = small, poorly fitted or top-dose-only effect, or another doubt; inactive = no such curve, though single readings can be large or run the other way. No potency is given beside an inconclusive call; the fits are too rough.

assay: qHTS of TDP-43 Inhibitors; conditions: TDP-43 expressing yeast growth rescue, BacTiter-Glo, 24 h; growth rescue (activation): at 46.1 µM (top of the series) unless noted; also: nearly all actives have a fitted effect of over 50% in size; as to growth rescue (activation): % of control where 0% means no effect
In short: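 Luminescence from BacTiter-Glo reports growth of TDP-43-expressing yeast after 24 hr at 30 deg C with compound. Cells were raffinose-pregrown to mid-log, then seeded in galactose medium at OD600=0.02.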
Potency is read from the fitted curve at half-maximal effect; tags tell the direction and shape of the fitted curve.

SMILES | Potency | growth rescue (activation)
O=C(NC(Cc1c[nH]c2ccccc12)C(=O)Nc1ccc(OC(F)(F)F)cc1)c1cccs1 (configuration not stated) | inconclusive [activator, partial curve] | –
O=[N+]([O-])c1cc(Cl)ccc1Oc1ccc(-c2nnco2)cc1 | inconclusive [activator, single point] | –
CC(CC(=O)Nc1ccc2c(c1)OCCO2)c1ccccc1 (configuration not stated) | inconclusive [activator, partial curve] | –
CCc1nonc1NC(=O)c1oc2ccc(Br)cc2c1C | inconclusive [activator, full curve, poor fit] | –
CCc1ccc(-n2c(=O)c3c4c(sc3n(CC(=O)N3CCC(C)CC3)c2=O)CCC4)cc1 | inconclusive [activator, full curve, poor fit] | –
CCC(C)Nc1nc(N)c([N+](=O)[O-])c(N2CCCCCC2)n1 (configuration not stated) | inconclusive [activator, single point] | –
O=C1C=CC(=Nc2ccc(F)cc2)O1 | – | inconclusive: -93.5% [activator]
CN(C(=O)CSc1nnc(-c2ccccc2F)o1)C1CCCCC1 | inconclusive [activator, partial curve] | –
Cc1nnc(N/N=C/c2ccc(-c3ccc(Br)cc3)o2)n1N | inconclusive [activator, partial curve, poor fit] | –
Cc1oc2ncnc(N3CCCCC3)c2c1C(=O)N1CCN(c2cccc(Cl)c2)CC1 | inconclusive [activator, partial curve] | –
CC(C)C(=O)N1CCN(c2nc(-c3ccc(Cl)cc3)cs2)CC1 | inconclusive [activator, single point] | –
CCCN1C(=O)C2(c3ccccc31)c1c(oc3ccc(F)cc3c1=O)C(=O)N2CCCOC(C)C (configuration not stated) | inconclusive [activator, single point] | –
C=CCn1c(SCc2c(F)cccc2Cl)nnc1-c1ccco1 | active: 12.6 µM | –
CC12CCC(C(=O)N3CCCc4ccccc43)(CC1=O)C2(C)C (configuration not stated) | inactive | –
CCOc1cc(NC(=S)Nc2ccccc2)c(OCC)cc1NC(=O)c1ccccc1 | inconclusive [activator, single point] | –
COC(=O)Cn1cnc2c(C#N)c3n(c2c1=O)CCCCC3 | inactive | –
c1ccc(CSc2nc3ncccc3[nH]2)cc1 | inconclusive [activator, full curve] | –
O=C(Nc1cccc(F)c1)C1CCN(S(=O)(=O)c2cccc3nsnc23)CC1 | inactive | –
CCN(CC(=O)Nc1cc(Cl)ccc1Cl)C(=O)c1ccc(-n2cccn2)cc1 | inconclusive [activator, single point] | –
CC(C)c1cnc2c(c1SCC(=O)Nc1cccc(F)c1)c(=O)n(C)c(=O)n2C | active: 35.5 µM | –
OCCCNc1nc(-c2ccccc2)nc2c1oc1ccccc12 | inconclusive [activator, single point] | –
COc1ccc(NC(=O)c2ccco2)c2ccccc12 | inconclusive [activator, single point] | –
CCN(C(=O)CSc1nc(-c2ccc(C(C)C)cc2)no1)c1cccc(C)c1 | inactive | –

SMILES | Potency | growth rescue (activation)
Cc1cccc(C(=O)Nc2nnc(S(=O)(=O)N(C)c3ccccc3C)s2)c1 | inactive | –
COc1ccc(OC)c(NS(=O)(=O)c2ccc(-c3cc(C)no3)s2)c1 | active: 15.8 µM | –
O=C(c1ccc(Cl)cc1)c1cnc(Nc2ccccc2Cl)s1 | inconclusive [activator, single point] | –
CC(=O)c1cnc(-c2ccccc2Cl)s1 | inconclusive [activator, partial curve] | –
COc1ccc(/C=N\NC(=O)c2c(C)nc3ccc(Br)cn23)cc1 | inconclusive [activator, full curve, poor fit] | –
CCOC(=O)c1cc(OC(=O)c2ccccc2C)n(-c2ccccc2)n1 | inconclusive [activator, partial curve] | –
CC(=O)c1cccc(NC(=O)N(c2ccccc2)c2ccccc2)c1 | active: 15.8 µM | –
COc1ccc(-c2nc(CS(=O)CC(=O)NCc3ccc(Cl)cc3)c(C)o2)cc1 (configuration not stated) | inconclusive [activator, partial curve] | –
Cc1cc2cc(C)c3nnc(SCC(=O)NCc4ccc5c(c4)OCO5)n3c2cc1C | inconclusive [activator, partial curve] | –
Cc1ccc([C@@H]2C[C@H]3[C@@H](CN2S(=O)(=O)c2ccc(C)cc2)C(=O)C[C@@H](c2ccc(Cl)cc2)N3S(=O)(=O)c2ccc(C)cc2)cc1 | inconclusive [activator, partial curve] | –
COc1cc2c(cc1NC(=S)Nc1cccc3ccccc13)oc1ccccc12 | inactive | –
COc1ccc(OCC(=O)N2CCCC2=O)c([N+](=O)[O-])c1 | inconclusive [activator, partial curve] | –
O=S(=O)(c1ccc2c(c1)OCCO2)N1CCNCC1 | inconclusive [activator, partial curve] | –
Clc1ccc(-c2cc3nc(NCc4cccc(Cl)c4)ccn3n2)cc1 | active: 35.5 µM | –
Cn1ncc2c(Nc3ccc4ccccc4c3)ncnc21 | active: 10 µM | –
Cc1nn(-c2ccccc2)cc1C(=S)Nc1ccccc1 | inconclusive [activator, single point] | –
Brc1ccc(NCc2cccc3ccccc23)nc1 | inconclusive [activator, full curve] | –
O=C(c1ccc(C(F)(F)F)cc1)N(CCCn1ccnc1)C(c1ccccn1)c1nc2ccccc2[nH]1 (configuration not stated) | inconclusive [activator, partial curve] | –
CCOc1ccc(N2CC(C(=O)NC3=NCCS3)CC2=O)cc1 (configuration not stated) | inactive | –
C/C(CC(=O)Nc1ccc(OCc2ccccc2)cc1)=N\NC(=O)C(=O)Nc1ccccc1C | inconclusive [activator, partial curve, poor fit] | –
CCOC(=O)N1CCN(c2c(-c3ccc(C)c(C)c3)c(=O)c2=O)CC1 | inconclusive [activator, single point] | –
CCOc1ncccc1C(=O)Nc1cc(S(=O)(=O)N(CC)CC)ccc1N1CCOCC1 | inconclusive [activator, partial curve, poor fit] | –
O=C(/C=C\c1cccs1)c1c(O)ccc2ccc(=O)oc12 | inconclusive [activator, partial curve] | –

SMILES | Potency | growth rescue (activation)
CCC(C)c1ccccc1NC(=O)COC(=O)c1ccc(C)c(NC(=O)c2ccco2)c1 (configuration not stated) | inconclusive [activator, full curve, poor fit] | –
COc1ccc(C=C2SC(=O)NC2=O)cc1OC | inactive | –
C/C(=N\Nc1ccc([N+](=O)[O-])cc1)c1ccc(N)cc1 | inconclusive [activator, partial curve] | –
COc1cc([N+](=O)[O-])cc(/C=N/NC(=O)Cn2nc(C)cc2C)c1O | inconclusive [activator, partial curve] | –
CCc1noc(C)c1C(=O)OCC(=O)NCCc1ccc(OC)cc1 | inconclusive [activator, partial curve] | –
O=C(Nc1ccccc1)N1N=CCC1c1ccccc1 (configuration not stated) | inactive | –
COc1ccc(OC)c(S(=O)(=O)NCCc2csc(-c3cccc(F)c3)n2)c1 | inconclusive [activator, single point] | –
CCOC(=O)c1c(C)[nH]c(C)c1S(=O)(=O)NCC(=O)N1CCN(c2ccccc2OC)CC1 | inactive | –
CC(=O)c1ccc(NC(=O)CCOc2ccccc2)cc1 | inconclusive [activator, partial curve] | –
Cn1c(SCc2nc(-c3ccccc3)no2)nnc1-c1ccco1 | inconclusive [activator, partial curve] | –
COc1ccccc1-c1noc(CCCC(=O)Nc2cc(C)ccc2C)n1 | inconclusive [activator, single point] | –
OC1COC(c2ccccc2)OC1C(O)C1OC(c2ccccc2)OCC1O (configuration not stated) | inactive | –
CCOC(=O)N1CCC(NC(=O)c2cc3sccc3n2CC)CC1 | inactive | –
O=C(NCc1nc2ccccc2[nH]1)C1=C[C@@H](c2ccc(C(F)(F)F)cc2)C[C@@H](OCCCCO)O1 | inactive | –
Cc1cc(C)n2nc(-c3ccc(F)cc3)cc2n1 | inconclusive [activator, partial curve, poor fit] | –
O=c1c(/C=N/OCc2ccc(Cl)cc2Cl)c[nH]n1-c1cccc(Cl)n1 | inconclusive [activator, partial curve] | –
Cc1ccc(-n2ncc3c(=O)n(Cc4ccccn4)cnc32)cc1C | inconclusive [activator, partial curve] | –
CCN(CC)c1cc(Oc2ccccc2)ncn1 | inconclusive [activator, partial curve, poor fit] | –
CC(C)N1C2OC(C3OC4C(O3)N(C(C)C)S(=O)(=O)N4C(C)C)OC2N(C(C)C)S1(=O)=O (configuration not stated) | inconclusive [activator, full curve] | –
COc1ccc(CNC(=O)C2CCC(CNc3c(N4CCOCC4)c(=O)c3=O)CC2)cc1 (configuration not stated) | inconclusive [activator, full curve, poor fit] | –
COc1cc(C2c3c(-c4ccccc4O)n[nH]c3C(=O)N2Cc2ccco2)ccc1OCC(C)C (configuration not stated) | inactive | –
